# Results as given in paper PMC4336329 (PLoS ONE, 2015).
# About 2,200 (0.71%) of roughly 310,000 compounds showed an effect of 50% or more. Effects have a minus sign here. Some of the results follow.
# Biological target: human ether-à-go-go-related gene (hERG) potassium channel (human, UniProt Q12809)
# Test: primary screen, population patch clamp on CHO cells stably expressing hERG
# human ether-à-go-go-related gene (hERG) potassium channel, sequence (Q12809 whole entry, looked up): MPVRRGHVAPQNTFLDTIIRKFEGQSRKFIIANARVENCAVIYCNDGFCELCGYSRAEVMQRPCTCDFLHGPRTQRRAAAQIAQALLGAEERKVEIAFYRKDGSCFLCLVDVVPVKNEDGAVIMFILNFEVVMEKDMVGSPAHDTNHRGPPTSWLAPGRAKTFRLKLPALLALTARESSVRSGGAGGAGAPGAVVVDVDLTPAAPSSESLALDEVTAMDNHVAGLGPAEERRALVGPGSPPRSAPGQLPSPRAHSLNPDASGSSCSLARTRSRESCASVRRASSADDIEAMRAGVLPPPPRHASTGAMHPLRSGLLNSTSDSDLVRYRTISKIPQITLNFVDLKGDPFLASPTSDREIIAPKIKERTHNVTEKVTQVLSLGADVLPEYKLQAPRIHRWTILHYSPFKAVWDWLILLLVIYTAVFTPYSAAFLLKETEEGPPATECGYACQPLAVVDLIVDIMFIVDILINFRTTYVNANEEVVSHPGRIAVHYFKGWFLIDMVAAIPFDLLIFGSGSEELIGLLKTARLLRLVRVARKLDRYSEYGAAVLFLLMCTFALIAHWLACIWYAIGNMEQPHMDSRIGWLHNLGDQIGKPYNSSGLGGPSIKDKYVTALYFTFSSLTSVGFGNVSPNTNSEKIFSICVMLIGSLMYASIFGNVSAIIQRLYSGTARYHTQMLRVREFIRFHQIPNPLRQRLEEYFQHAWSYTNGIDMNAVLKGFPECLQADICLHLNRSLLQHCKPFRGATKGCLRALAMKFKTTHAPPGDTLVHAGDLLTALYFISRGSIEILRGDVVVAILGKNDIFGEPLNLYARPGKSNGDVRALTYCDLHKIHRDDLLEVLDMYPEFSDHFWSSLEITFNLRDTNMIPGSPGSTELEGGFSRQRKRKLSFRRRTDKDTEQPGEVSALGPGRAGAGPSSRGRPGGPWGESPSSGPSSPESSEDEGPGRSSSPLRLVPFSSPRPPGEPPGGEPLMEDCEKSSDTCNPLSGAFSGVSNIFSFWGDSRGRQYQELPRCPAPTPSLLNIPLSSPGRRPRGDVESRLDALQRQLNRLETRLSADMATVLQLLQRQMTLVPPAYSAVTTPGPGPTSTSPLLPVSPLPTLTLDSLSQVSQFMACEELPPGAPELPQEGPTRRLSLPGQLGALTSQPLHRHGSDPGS
row,SMILES,"hERG current change (%, negative = inhibition) at 1uM [%]"
1,O=C1OC(c2ccccc2)=NC12CC2c1ccc(Cl)cc1 (stereo not drawn),0.408
2,O=C(CSc1nnc(C2COc3ccccc3O2)o1)Nc1nccs1 (stereo not drawn),6.28
3,COc1cccc(/C=N/NC(=O)C(=O)Nc2ccccc2OC(F)(F)C(F)F)c1O,10.3
4,Cc1ccc(NC(=O)CSc2nnc(-c3cc(C)[nH]n3)n2N)c(C)c1,3.36
5,C/C(CC(=O)Nc1ccccc1F)=N\NC(=O)Cc1ccc(Cl)cc1,9.61
6,CCn1nnnc1NCc1cccn1C,19.7
7,CCOC(=O)C1CCCN(C(=O)c2cc(-c3ccccc3)on2)C1 (stereo not drawn),3.94
8,CC1CCCC(NCC(=O)Nc2ccc(C(N)=O)cc2)C1C (stereo not drawn),5.23
9,COc1cc(NC(=O)C2CC(=O)N(Cc3ccco3)C2)cc(OC)c1 (stereo not drawn),2.39
10,CCN(C(=O)COC(=O)c1ccccc1SCC(=O)NC1CCCCCCC1)C1CCS(=O)(=O)C1 (stereo not drawn),4.61
11,Cc1nc2ccccc2nc1OCC(=O)NCC(F)(F)F,12.9
12,COc1cccc(CCc2nc3ccccc3c(=O)n2N)c1,10.6
13,Cc1sc2nc(-c3ccccn3)[nH]c(=O)c2c1-c1ccccc1,21.8
14,CCOCCN1CCN(c2nnc3n2-c2ccc(Cl)cc2C(c2ccccc2Cl)=NC3)CC1.O=CO,-57.6
15,CC(C)[C@H](N)c1nnc2n1N=C(c1ccc(Cl)cc1)CS2.Cl,8.31
16,CCOc1cc2[nH]c(=O)n(CCCCC(=O)NC3CCCCCC3)c(=O)c2cc1OCC,4.74
17,CC(OC(=O)C1CC(=O)N(Cc2ccco2)C1)C(=O)Nc1ccccc1[N+](=O)[O-] (stereo not drawn),-9.36
18,O=C(CSc1nnc(NC(=O)c2cccc(F)c2)s1)NCC1CCCO1 (stereo not drawn),13.3
19,CCOc1cccc(N2C(=O)CC(N3CCN(c4ccc(S(=O)(=O)CC)cc4)CC3)C2=O)c1 (stereo not drawn),9.61

row,SMILES,"hERG current change (%, negative = inhibition) at 1uM [%]"
1,CCCCCCC(=O)N/N=C/c1c(O)n(C2CC2)c(=S)[nH]c1=O,8.68
2,COc1ccc(Cl)cc1NC(=O)CN(C)Cc1ccc(OC)c(OC)c1,-1.46
3,CCCCN(CCCC)S(=O)(=O)c1ccc(N2CCCC2=O)c([N+](=O)[O-])c1,8.28
4,O=C(Nn1cnnc1)c1ccc([N+](=O)[O-])cc1Cl,9.39
5,Cl.O=C(CSc1nc2ccccc2[nH]1)N1CCN(C(=O)c2ccco2)CC1,-1.54
6,CC(C)NP(=O)(NC(C)C)OP(=O)(NC(C)C)NC(C)C,8.33
7,N#C/C(=C\c1ccc(-c2cccc([N+](=O)[O-])c2)o1)c1nnc(N2CCOCC2)n1-c1ccccc1,2.99
8,COc1ccc(C2=NCCn3cccc32)c(OC)c1,-7.59
9,CCN(C(=O)COC(=O)c1[nH]c(C)c(C(C)=O)c1C)C1CCS(=O)(=O)C1 (stereo not drawn),-0.793
10,O=C(CSc1nccc(=O)[nH]1)N1c2ccccc2CCc2ccccc21,15
11,COC(=O)c1ccc(NC(=O)c2cn(-c3ccccc3)nc2-c2ccncc2)cc1,3.71
12,CCc1nnc(SCc2ccc(C(=O)OC)o2)n1N.Cl,14.7
13,COc1cc(OC)cc(C(=O)N[C@H](C(=O)NCCc2c[nH]c3ccccc23)C(C)C)c1,9.87
14,C=CCOC(=O)CCCC(=O)NC1CCCCC1,2.48
15,O=S(=O)([N-]c1nc2ccccc2nc1-[n+]1ccccc1)c1ccc(F)cc1,12.1
16,CNC(=O)/C(C#N)=C1\SC(Cc2ccc(F)cc2)C(=O)N1c1ccccc1C (stereo not drawn),4.1
17,CCOC(=O)N1CCN(S(=O)(=O)/C=C/c2ccccc2)CC1,-10.2
18,CC(Oc1ccccc1F)C(=O)NNC(=O)CCS(=O)(=O)c1ccccc1Cl (stereo not drawn),-4.95
19,Cc1cc2occ(CC(=O)Nc3nnc(C4CC4)s3)c2cc1C,9.49

row,SMILES,"hERG current change (%, negative = inhibition) at 1uM [%]"
1,CCN1CCN(S(=O)(=O)c2ccc(Cl)c(C(=O)N(C)Cc3ccccc3)c2)CC1,1.46
2,Cc1cc(C)n2nc(C(=O)OCC(=O)NC(=O)c3ccccc3)nc2n1,12.1
3,CC1=C(C(=O)OC2CCCCC2)C(c2ccccc2F)NC(=O)N1 (stereo not drawn),14.9
4,NNC(=O)c1csc(-c2ncc(C(F)(F)F)cc2Cl)n1,11
5,COc1ccc(C)cc1NC(=O)C(=O)NCc1ccncc1,9.54
6,O=C(NCc1ccc(Cl)cc1)c1cc2ccccc2oc1=O,9.53
7,O=C(Cc1ccsc1)NNC(=O)c1cccc(Cl)c1,14.3
8,CCOC(=O)N1CCN(C(=O)c2cn(C)c3ccc(S(=O)(=O)N4CCC(C)CC4)cc3c2=O)CC1,5.1
9,CCSc1nnc(C(N)Cc2ccccc2)o1.Cl (stereo not drawn),24.5
10,CCOC(=O)c1ccc(NCc2ccc3c(c2)OCO3)cc1,16.1
11,CS(=O)(=O)Cc1nc2ccccc2oc1=O,13.7
12,CCOc1cc(C(=O)N2CCN(c3ccccc3)CC2)cc(OCC)c1OCC,10.4
13,COc1ccc(-c2cc(=O)oc3c(C)c(OCC(=O)Nc4cccnc4)ccc23)cc1,19.8
14,O=C(CN1c2cccc3cccc(c23)S1(=O)=O)Nc1ccccc1F,18.6
15,Cc1ccc(N2C(S)=C(C#N)C(=O)NC23CCCCC3)cc1,13.9
16,CC1CCCN(CC(O)COc2ccc(S(=O)(=O)N3CCCC3)cc2[N+](=O)[O-])C1 (stereo not drawn),8.33
17,CCn1nc(C(=O)Nc2cccc(C(F)(F)F)c2)c(Cl)c1Cl,19.2
18,CCN(CCn1cccn1)C(=O)C1CCC(=O)N(CC2CCCCC2)C1 (stereo not drawn),13.2
19,Cn1c(N)c(C(=O)COC(=O)Cc2ccsc2)c(=O)n(C)c1=O,0.0047
